Assay results taken from PubChem BioAssay AID488969 (Vanderbilt High Throughput Screening Facility, 2010).
Whole data set: some 110,000 compounds, median “z-score” near -0.1, cut for the highest 2% near 2. This is one part of the list. Activity calls are given as the source filed them.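 The calls were made as follows: active = z-score in the third read window above 3 or below -3; inactive = the rest.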

Target: Metabotropic glutamate receptor 8 (Rattus norvegicus) (UniProt P70579)
Assay: mGluR8 Gi/Go-coupled signaling modulation – cell-based, rat, thallium flux, HTS, primary screen (AID 488969)
Conditions: HEK293 rat mGluR8, GIRK (G protein-gated inwardly rectifying potassium channel) thallium flux, FluoZin2; at 10 µM; stronger effect = higher value; submaximal glutamate (EC20) added with thallium

Sequence of UniProt P70579 (P70579 whole entry, looked up): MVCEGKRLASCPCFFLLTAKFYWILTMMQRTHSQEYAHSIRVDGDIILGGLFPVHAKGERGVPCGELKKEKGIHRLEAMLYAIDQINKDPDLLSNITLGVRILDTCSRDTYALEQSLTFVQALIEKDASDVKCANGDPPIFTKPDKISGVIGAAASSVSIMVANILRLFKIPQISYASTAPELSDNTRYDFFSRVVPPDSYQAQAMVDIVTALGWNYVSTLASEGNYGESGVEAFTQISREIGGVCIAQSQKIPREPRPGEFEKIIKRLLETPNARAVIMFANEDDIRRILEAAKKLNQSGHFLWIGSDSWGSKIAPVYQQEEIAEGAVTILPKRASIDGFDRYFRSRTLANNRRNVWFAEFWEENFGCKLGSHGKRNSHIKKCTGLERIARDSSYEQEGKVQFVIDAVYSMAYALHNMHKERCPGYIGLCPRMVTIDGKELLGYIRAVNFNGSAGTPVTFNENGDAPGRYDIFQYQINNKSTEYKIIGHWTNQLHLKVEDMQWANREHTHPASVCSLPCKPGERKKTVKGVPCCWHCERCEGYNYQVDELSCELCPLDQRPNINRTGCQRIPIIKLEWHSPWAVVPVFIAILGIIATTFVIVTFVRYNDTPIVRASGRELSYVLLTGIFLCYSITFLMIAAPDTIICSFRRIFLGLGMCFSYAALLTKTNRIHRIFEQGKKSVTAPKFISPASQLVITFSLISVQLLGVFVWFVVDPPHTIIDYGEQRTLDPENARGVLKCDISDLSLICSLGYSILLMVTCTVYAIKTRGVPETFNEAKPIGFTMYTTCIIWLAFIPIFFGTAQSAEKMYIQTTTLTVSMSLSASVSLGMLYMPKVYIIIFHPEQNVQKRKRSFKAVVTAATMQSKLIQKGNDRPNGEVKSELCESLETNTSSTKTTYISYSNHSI

**Q.** How did the z-score turn out when `O=C(C1CCCN(Cc2ccccc2C(F)(F)F)C1)N1CCCCC1` (configuration not stated) was run?
**A.** Its z-score is -1.27.

**Q.** `COc1ccc(NC(=O)CC2SC(=Nc3ccccc3)NC2=O)c(OC)c1` (configuration not stated) was tested. Which z-score did it give?
**A.** Its z-score is 0.857.

**Q.** With `COc1cccc(Cn2c(-c3nonc3N)nc3ccccc32)c1` as the molecule, how does the z-score read?
**A.** The z-score was 0.0572.

**Q.** With `O=C(c1ccc(Br)o1)N(c1ccccn1)C1CCCCC1` as the molecule, how does the z-score read?
**A.** Its z-score is -0.175.

**Q.** `COc1ccc2c(c1)-c1c(ssc1=S)C(C)(C)N2S(=O)(=O)c1ccc(C)cc1` was tested. Which z-score did it give?
**A.** Its z-score is -0.0351.

**Q.** For `O=c1[nH]c(Nc2ccc(F)cc2)cc2ccccc12`, which z-score is on record?
**A.** The z-score was -0.11.

**Q.** With `COC(=O)C1=C(C)NC(=O)C1(NC(=O)CN1CCCC1=O)C(F)(F)F` (configuration not stated) as the molecule, how does the z-score read?
**A.** Its z-score is 0.447.

**Q.** With `COC(=O)C1=C(N)c2c(F)cccc2C1(C#N)c1ccccc1` (configuration not stated) as the molecule, how does the z-score read?
**A.** Its z-score is -0.579.

**Q.** Which z-score does the source give for `CNC(=O)c1ncnnc1N(C)C(=O)NCc1ccccc1` here?
**A.** Its z-score is 0.334.

**Q.** `Cc1c(Nc2nc3ccccc3nc2NS(=O)(=O)c2ccccc2)c(=O)n(-c2ccccc2)n1C` was tested. Which z-score did it give?
**A.** Its z-score is -0.716.

**Q.** For `COc1ccc(CNC(=O)C(c2ccncc2)N(C(=O)Cc2cccs2)c2cccc(C)c2)cc1` (configuration not stated), which z-score is on record?
**A.** Its z-score is -0.197.

**Q.** With `Cc1cc(C)cc(NC(=O)/C=C/c2ccc([N+](=O)[O-])s2)c1` as the molecule, how does the z-score read?
**A.** The z-score was 0.74.

**Q.** With `O=C1CC(c2ccc(Br)cc2)NC(c2ccc(Br)cc2)C1c1ccccc1` (configuration not stated) as the molecule, how does the z-score read?
**A.** Its z-score is -0.141.

**Q.** Which z-score does the source give for `COCCCNC(=O)C1CCN(c2nc(C)cc(C)n2)CC1` here?
**A.** Its z-score is 0.615.

**Q.** `N#CCCn1c(SCC(=O)NCCc2ccc(F)cc2)nc2ccccc21` was tested. Which z-score did it give?
**A.** The z-score was 0.367.

**Q.** How did the z-score turn out when `CN1CCN(CC(=O)Nc2c(C(=O)C3CC3)oc3ccccc23)CC1` was run?
**A.** The z-score was -0.346.

**Q.** For `COc1ccc(N2CCN(C(=O)c3cn(C4CCCC4)c(=O)c4c3c3ccccc3n4C)CC2)cc1`, which z-score is on record?
**A.** The z-score was -0.454.

**Q.** For `Cc1ccc2[nH]cc(CCNC(=O)CN3C(=O)c4ccccc4C3=O)c2c1`, which z-score is on record?
**A.** The z-score was -0.118.

**Q.** For `Cc1ccc(NC(=S)NCc2ccc3c(c2)OCO3)cc1`, which z-score is on record?
**A.** Its z-score is 0.205.

**Q.** Which z-score does the source give for `COC(=O)CSc1nc(SCc2ccc(C)cc2)nc2c1CCCC2` here?
**A.** The z-score was -0.536.

**Q.** With `Cc1ccc(C)c(S(=O)(=O)NC(CC(C)C)C(=O)O)c1` (configuration not stated) as the molecule, how does the z-score read?
**A.** The z-score was 0.031.

**Q.** How did the z-score turn out when `CCc1ccc(NC(=O)COc2ccc(/C=C(/C#N)c3nc4ccccc4[nH]3)cc2OC)cc1` was run?
**A.** Its z-score is -0.248.

**Q.** How did the z-score turn out when `COc1cc(NC(=O)CSc2ccccc2)c(C(=O)O)cc1OC` was run?
**A.** Its z-score is -0.309.

**Q.** How did the z-score turn out when `Cc1ccc(C(=O)NC(=S)NCC2CCCO2)cc1` (configuration not stated) was run?
**A.** Its z-score is -0.155.

**Q.** Which z-score does the source give for `O=C(N=C1SCC(=O)N1c1ccccc1)c1ccco1` here?
**A.** The z-score was 0.173.

**Q.** For `COCC(=O)N(c1ccc(C(C)C)cc1)C1C=CS(=O)(=O)C1` (configuration not stated), which z-score is on record?
**A.** The z-score was -0.253.

**Q.** Which z-score does the source give for `O=C(Nc1nccs1)c1nc(-c2ccccc2)n(-c2ccccc2)n1` here?
**A.** Its z-score is 0.663.

**Q.** How did the z-score turn out when `Fc1ccc(CN2CCN3CCCC3C2C2CCCCC2)cc1F` (configuration not stated) was run?
**A.** The z-score was 0.36.

**Q.** Which z-score does the source give for `COc1ccc(NC(=O)Nc2cccc3cccnc23)cc1` here?
**A.** The z-score was -0.361.

**Q.** `CCOc1cccc2sc(Nc3nc4ccc(NC(C)=O)cc4s3)nc12` was tested. Which z-score did it give?
**A.** The z-score was -0.153.

**Q.** For `O=C(Nn1cnnc1)C1CCCN1S(=O)(=O)c1ccc(F)cc1` (configuration not stated), which z-score is on record?
**A.** Its z-score is 1.78.

**Q.** With `COc1ccc(NC(=O)COC(=O)C(CC(C)C)N2C(=O)C3CC=CCC3C2=O)cc1Cl` (configuration not stated) as the molecule, how does the z-score read?
**A.** The z-score was -0.163.

**Q.** With `COc1ccc(C(=O)N/N=C/c2cc3ccccc3[nH]c2=S)cc1` as the molecule, how does the z-score read?
**A.** Its z-score is -0.277.

**Q.** For `CCOc1cc(/C=C2/C(=O)ON=C2C)ccc1OCc1ccccc1F`, which z-score is on record?
**A.** The z-score was 0.0383.

**Q.** With `O=C(CSc1nc2ccccc2o1)N1CCN(c2ccc(Cl)cc2)CC1` as the molecule, how does the z-score read?
**A.** The z-score was -0.237.

**Q.** With `CC1=CC(C)(C)NC(=S)N1c1ccc(C)cc1` as the molecule, how does the z-score read?
**A.** Its z-score is 0.241.

**Q.** Which z-score does the source give for `O=C(NN=C1CCCC1)NC1CCCCC1` here?
**A.** Its z-score is -0.219.

**Q.** For `Cc1ccc(NC(=O)C(=O)NCCOc2ccccc2Cl)cc1`, which z-score is on record?
**A.** Its z-score is -0.128.

**Q.** `O=C1Nc2cc(Cl)c(Cl)cc2N(O)N1c1ccc(Cl)c(Cl)c1` was tested. Which z-score did it give?
**A.** The z-score was -0.447.

**Q.** `CNc1nc(Oc2ccc(=O)n(C)n2)nc(N2CCOCC2)n1` was tested. Which z-score did it give?
**A.** Its z-score is -0.336.

**Q.** `Cc1ccccc1NC(=S)NNC(=O)c1csc2c1CCC(C)C2` (configuration not stated) was tested. Which z-score did it give?
**A.** The z-score was active: 8.84.

**Q.** With `O=C1CSCC(=O)N1c1ccccc1` as the molecule, how does the z-score read?
**A.** The z-score was -0.0628.

**Q.** With `COc1cccc(NC(=O)CC(C)=O)c1` as the molecule, how does the z-score read?
**A.** Its z-score is 0.0348.

**Q.** For `COc1ccc(N2CCN(C(=O)CSc3nnc(Cn4nnc5ccccc54)n3C)CC2)cc1`, which z-score is on record?
**A.** Its z-score is 0.0499.

**Q.** `CCSc1ccccc1C(=O)NCc1ccc2c(c1)OCO2` was tested. Which z-score did it give?
**A.** Its z-score is -0.45.

**Q.** With `CCCOP(=O)(c1ccccc1)c1ccccc1` as the molecule, how does the z-score read?
**A.** The z-score was 0.167.

**Q.** With `COCCNC(=O)CCCCCn1c(=S)[nH]c2ccccc2c1=O` as the molecule, how does the z-score read?
**A.** The z-score was 1.77.

**Q.** For `Cc1nc(-c2ccccc2)sc1-c1nc(-c2cccnc2)ncc1S(=O)(=O)c1ccccc1`, which z-score is on record?
**A.** The z-score was 0.0175.

**Q.** Which z-score does the source give for `O=Cc1ccc2noc(-c3ccc(Cl)cc3)c2c1` here?
**A.** Its z-score is 0.119.

**Q.** With `COC(=O)c1ccc(NC(=O)CSCc2ccccc2)cc1` as the molecule, how does the z-score read?
**A.** The z-score was -0.454.

**Q.** `O=C(/C=C/c1ccc(Cl)cc1)Nc1ccccc1N1CCOCC1` was tested. Which z-score did it give?
**A.** Its z-score is -0.282.

**Q.** How did the z-score turn out when `CN1C=CC=C/C1=C1\SC(=S)N(c2ccccc2)C1=O` was run?
**A.** The z-score was -0.106.

**Q.** With `Cc1cc(OCC(=O)N2CCc3ccccc3C2)c2c(-c3ccccc3)cc(=O)oc2c1` as the molecule, how does the z-score read?
**A.** The z-score was -0.197.

**Q.** `CC(C)Cn1c(-c2ccco2)n[nH]c1=S` was tested. Which z-score did it give?
**A.** The z-score was -0.0867.

**Q.** With `Cc1ccc(N2C(=O)C(O)(C(F)(F)F)C3=C2CC(C)(C)CC3=O)cc1` (configuration not stated) as the molecule, how does the z-score read?
**A.** Its z-score is 0.237.

**Q.** With `Nc1nc(-c2cccs2)cs1` as the molecule, how does the z-score read?
**A.** Its z-score is -0.068.

**Q.** `COc1ccc(CCNC(=O)CSc2ncn[nH]2)cc1` was tested. Which z-score did it give?
**A.** Its z-score is 0.862.

**Q.** `CCn1c(Cc2ccccc2)nnc1SCC(=O)Nc1nc2ccccc2s1` was tested. Which z-score did it give?
**A.** Its z-score is 0.0953.

**Q.** `Cc1ccc(SCc2[nH]nc3c2C(c2ccc(C)o2)C(C#N)=C(N)O3)cc1` (configuration not stated) was tested. Which z-score did it give?
**A.** Its z-score is -0.407.

**Q.** How did the z-score turn out when `N=c1sccn1CC(=O)Nc1ccc2c(c1)CCC2` was run?
**A.** The z-score was 1.96.

**Q.** Which z-score does the source give for `C/C(CC(=O)Nc1ccccn1)=N\NC(=O)Cc1cccc2ccccc12` here?
**A.** Its z-score is -0.0604.

**Q.** How did the z-score turn out when `CS(=O)(=O)Nc1nnc(SCC(=O)N(c2ccccc2)c2ccccc2)s1` was run?
**A.** The z-score was -0.0733.

**Q.** How did the z-score turn out when `Cc1cc(NS(=O)(=O)Cc2ccccc2)cc(C)c1OCC(=O)N1CCOCC1` was run?
**A.** Its z-score is -0.188.

**Q.** With `CCc1ccc(-c2nc(CN3CCC(C(=O)NCc4ccc(F)cc4)CC3)c(C)o2)cc1` as the molecule, how does the z-score read?
**A.** Its z-score is -0.352.

**Q.** `N#Cc1ccc(-c2ccc(Cl)cc2)nc1Oc1ccc(F)cc1` was tested. Which z-score did it give?
**A.** Its z-score is -0.78.

**Q.** For `CC1=C(C#N)C(NC(=O)C(C)(C)C)(C(F)(F)F)C(=O)N1` (configuration not stated), which z-score is on record?
**A.** The z-score was -0.0109.

**Q.** For `Cn1nc(-c2ccc(OCC(=O)Nc3cccnc3)cc2)c2ccccc2c1=O`, which z-score is on record?
**A.** The z-score was -0.0224.

**Q.** Which z-score does the source give for `O=S(=O)(Cc1ccccc1)N1CCN(C2Cc3ccccc3C2)CC1` here?
**A.** The z-score was -0.00479.

**Q.** Which z-score does the source give for `CCC(C)c1ccccc1NC(=O)COC(=O)CCc1cc(OC)c(OC)c(OC)c1` (configuration not stated) here?
**A.** Its z-score is -0.481.

**Q.** Which z-score does the source give for `CCOc1ccc(-n2cc(C(=O)Nc3cccc(OC)c3)c3cc(OC)c(OC)cc3c2=O)cc1` here?
**A.** Its z-score is -0.195.

**Q.** Which z-score does the source give for `COc1ccc(/C=C(/NC(=O)c2ccc(C)cc2)c2nc3ccccc3[nH]2)cc1OC` here?
**A.** The z-score was -0.124.

**Q.** With `COC(=O)C1=C(C)N(C2CCCC2)C(=O)C1(NC(C)=O)C(F)(F)F` (configuration not stated) as the molecule, how does the z-score read?
**A.** The z-score was -0.225.
